The record followed here is PMC4336329 (PLoS ONE, 2015).

SMILES strings stand for the structures. The campaign covered roughly 310,000 compounds. About 2,200 (0.71%) showed an effect of 50% or more. The effect is printed as a negative number. The list shows a part of the results.

human ether-à-go-go-related gene (hERG) potassium channel, sequence (Q12809 whole entry, looked up): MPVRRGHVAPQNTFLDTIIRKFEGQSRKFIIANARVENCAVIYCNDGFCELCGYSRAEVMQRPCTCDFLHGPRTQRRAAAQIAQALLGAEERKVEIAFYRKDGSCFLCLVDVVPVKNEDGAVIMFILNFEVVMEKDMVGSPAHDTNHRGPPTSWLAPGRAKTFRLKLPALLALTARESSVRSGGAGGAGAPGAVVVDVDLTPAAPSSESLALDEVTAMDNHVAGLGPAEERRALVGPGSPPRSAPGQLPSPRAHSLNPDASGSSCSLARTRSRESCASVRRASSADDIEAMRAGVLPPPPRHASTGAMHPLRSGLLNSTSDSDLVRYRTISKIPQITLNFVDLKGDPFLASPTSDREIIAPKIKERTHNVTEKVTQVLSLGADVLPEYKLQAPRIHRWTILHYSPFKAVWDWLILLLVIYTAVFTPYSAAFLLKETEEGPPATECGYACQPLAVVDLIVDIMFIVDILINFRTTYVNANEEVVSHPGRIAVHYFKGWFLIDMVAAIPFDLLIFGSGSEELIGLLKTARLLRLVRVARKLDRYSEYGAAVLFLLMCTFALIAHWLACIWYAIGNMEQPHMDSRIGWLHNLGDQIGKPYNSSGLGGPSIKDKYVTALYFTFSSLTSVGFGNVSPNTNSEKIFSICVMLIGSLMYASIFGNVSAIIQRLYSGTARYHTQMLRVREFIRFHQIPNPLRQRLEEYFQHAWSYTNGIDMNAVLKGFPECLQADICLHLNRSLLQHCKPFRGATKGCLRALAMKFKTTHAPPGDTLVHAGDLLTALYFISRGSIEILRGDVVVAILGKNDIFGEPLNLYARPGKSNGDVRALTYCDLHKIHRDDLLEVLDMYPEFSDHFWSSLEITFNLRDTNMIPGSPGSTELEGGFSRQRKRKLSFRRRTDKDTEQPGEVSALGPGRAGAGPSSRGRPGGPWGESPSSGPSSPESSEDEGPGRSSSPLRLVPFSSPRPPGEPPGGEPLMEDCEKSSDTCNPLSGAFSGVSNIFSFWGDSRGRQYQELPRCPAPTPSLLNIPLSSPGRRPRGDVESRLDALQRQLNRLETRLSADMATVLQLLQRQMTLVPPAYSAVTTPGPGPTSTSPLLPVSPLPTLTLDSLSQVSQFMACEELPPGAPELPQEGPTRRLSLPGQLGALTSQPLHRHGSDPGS

The experiment has as its target human ether-à-go-go-related gene (hERG) potassium channel (human, UniProt Q12809). Description: primary screen, population patch clamp on CHO cells stably expressing hERG.
On to `CCc1ccc(CN(C)C(=O)c2cc(COc3c(F)cccc3F)on2)cc1`, for which the “hERG current change (%, negative = inhibition) at 1uM” value is recorded as 12.6%. Consider `CCC(C)(C)NC(=O)C(c1ccc(OC)cc1)N(Cc1ccc(OC)cc1)C(=O)CCC(=O)Nc1cc(C)on1` (centres unmarked), for which the “hERG current change (%, negative = inhibition) at 1uM” value turned out to be 16.3%. Take `COc1cc(/C=C2\N=C(c3ccccc3)NNC2=O)cc(OC)c1OC`: the “hERG current change (%, negative = inhibition) at 1uM” value is on record as 22.4%.

As to `Cc1c(C#N)c2ncn(Cc3ccccc3)c(=O)c2n1-c1ccccc1`, the “hERG current change (%, negative = inhibition) at 1uM” value turned out to be 6.89%.

Turning to `CCOc1ccc(NC(=S)Nc2cc(C)[nH]n2)cc1`, the “hERG current change (%, negative = inhibition) at 1uM” value is on record as -2.58%. Under `CC1(C)CN(c2ccsc2C(=O)O)C1=O` stands 10.5%; under `CCOc1ccc(OCC)c(C2C(C#N)=C(N)N(c3cccnc3)C3=C2C(=O)CC(C)(C)C3)c1` (centres unmarked), 4.99%; under `O=C(CCS(=O)(=O)c1ccc(Br)cc1)Nc1cc(F)ccc1F`, 8.63%. Consider `O=C(COC(=O)c1ccccc1)Nc1ccc2[nH]c(=O)[nH]c2c1`, for which the “hERG current change (%, negative = inhibition) at 1uM” value is -0.225%. Under `CCc1ccc(-c2ccc(SCC(=O)Nc3nnc(C)s3)nn2)cc1` stands 8.34%; under `O=C(OCCN1CCOCC1)c1ccc(O)cc1`, 8.47%. Turning to `O=C(Nc1ccc(N2CCOCC2)c(Cl)c1)c1ccc(Br)o1`, the “hERG current change (%, negative = inhibition) at 1uM” value is on record as -5.57%. For `O=C(CCc1ccccc1)NCCc1ccc(F)cc1`, the “hERG current change (%, negative = inhibition) at 1uM” value is listed as 7.18%.

Consider `CC1CC(OCC(O)CN2CCOCC2)CC(C)(C)C1.Cl` (centres unmarked), for which the “hERG current change (%, negative = inhibition) at 1uM” value was 5.79%. As to `O=C(COC(=O)C1=COCCO1)Nc1cccc(S(=O)(=O)N2CCOCC2)c1`, the “hERG current change (%, negative = inhibition) at 1uM” value is 9.63%.

As to `CCOc1ccc(N2C(=O)CS/C2=C(\C(Cl)=C(Cl)Cl)[N+](=O)[O-])cc1`, the “hERG current change (%, negative = inhibition) at 1uM” value is listed as 14.2%. Under `COc1ccc(S(=O)(=O)N2CCOC2CNC(=O)C(=O)NCCc2ccccc2OC)cc1C` (centres unmarked) stands 8.47%; under `C=CCn1c(C(C)(C)C)nc2ccccc21`, 2.77%; under `COc1ccc(OC)c(S(=O)(=O)n2nc(C)cc2C)c1`, -0.46%. Under `CCC(C(=O)Nc1ccc(S(=O)(=O)N2CCN(C)CC2)cc1)c1ccccc1` (centres unmarked) stands 14.4%; under `O=C(Cn1cc(C(F)(F)F)cc(Cl)c1=O)Nc1ccc(N2CCOCC2)cc1`, 3.85%; under `COc1ccc(N2C(=O)C(CC(=O)O)S/C2=N\N=C\c2cccs2)cc1` (centres unmarked), 11%.

With `Cc1nn(C(C)(C)C)c(OC(=O)c2ccc3c(c2)OCO3)c1Sc1ccccc1`, the “hERG current change (%, negative = inhibition) at 1uM” value stood at 10.2%. With `COc1cc(C(=O)N/C(=C/c2ccc(F)cc2)C(=O)NC(C(=O)O)c2ccccc2)cc(OC)c1OC` (centres unmarked), the “hERG current change (%, negative = inhibition) at 1uM” value was found to be 4.92%. Under `CCCNC(=O)CN1C(=O)NC(c2ccccc2)(c2ccccc2)C1=O` stands 7.14%. On to `Oc1ccc(C[C@@H]2CNCCN2CCc2cc(C(F)(F)F)cc(C(F)(F)F)c2)cc1`, for which the “hERG current change (%, negative = inhibition) at 1uM” value came out at 1.37%. As for `Cc1cc(C)c(S(=O)(=O)Nc2c(C)[nH]c(=O)[nH]c2=O)c(C)c1`, the “hERG current change (%, negative = inhibition) at 1uM” value amounted to 7.62%. As for `Cc1cc(S(=O)(=O)NCCN(C)C)c(C)s1.Cl`, the “hERG current change (%, negative = inhibition) at 1uM” value was 8.52%. Then `CCN(CC)c1ccc(S(=O)(=O)N2CCOCC2)cc1NC(=O)CNCc1ccccc1.O=C(O)C(=O)O`, with 1.29%; and `Cc1nc2c(c(=O)n1CCC(C)C)c1nc3ccccc3nc1n2CC1CCCO1` (centres unmarked), with 4.92%. Under `CCN(CC)c1ccc2cc(S(=O)(=O)c3ccc(C)cc3)c(=O)oc2c1` stands 12.8%.

In the case of `O=C(c1cc2cc(F)ccc2[nH]1)N1CCc2ccccc2C1`, the “hERG current change (%, negative = inhibition) at 1uM” value was 14.9%. Consider `Cc1c(-c2ccc(Br)cc2)[n+](=O)c2c(n1[O-])CCCC2`, for which the “hERG current change (%, negative = inhibition) at 1uM” value is recorded as 19.2%. Then `Cc1cccc2cc(CN(Cc3ccc(F)cc3)C(=O)N3CCOCC3)c(=O)[nH]c12`, with 1.19%; and `CCC(=O)N1CCN(C(C)=O)C1c1ccccc1` (centres unmarked), with 15.1%; and `CCC(NC(=S)NC1CCCCC1)c1ccc(C)cc1` (centres unmarked), with 15.1%. Under `O=C(N/N=C/c1ccc(O)cc1O)c1ccncc1` stands 11.5%; under `Cc1cc(Cl)ccc1OCCCC(=O)OCC(=O)c1c(N)n(C)c(=O)n(C)c1=O`, 4.68%. Then `O=C(Nc1ccccc1Cl)C1(c2ccccc2)CC1(Cl)Cl` (centres unmarked), with 9.36%; and `COc1ccc(-n2c(SCC(=O)N3CCCCC3C)nnc2-c2cccnc2)cc1` (centres unmarked), with -3.62%. For the compound `CCc1ccccc1NC(=O)C1CC(c2ccc(OC)cc2)=NO1` (centres unmarked), the “hERG current change (%, negative = inhibition) at 1uM” value was 11.6%.

Consider `CCOc1cc(N2CCOCC2)c(OCC)cc1NC(=O)COC(=O)CCOc1ccc(C)cc1`, for which the “hERG current change (%, negative = inhibition) at 1uM” value stood at 7.71%. For the compound `CC(C(=O)Nc1ccc(F)c(F)c1)N1CCN(C)CC1.O=C(O)C(=O)O` (centres unmarked), the “hERG current change (%, negative = inhibition) at 1uM” value is 16.1%. Then `COc1ccccc1C(=O)NCc1nnc(SC(C)C(=O)Nc2nccs2)n1C` (centres unmarked), with 10.9%; and `CCCNC(=O)C(Cc1cccc(C#N)c1)NC(=O)c1ccc(C#N)cc1` (centres unmarked), with -2.17%. Under `CC(C)(C)OC(=O)C1C(=O)CC(C)(O)C(C(=O)OC(C)(C)C)C1c1cccnc1` (centres unmarked) stands 12.9%.

Turning to `C[C@H](NC(=O)C1CC(=O)N(c2ccc3c(c2)OCO3)C1)C(=O)NC1CCCCC1` (some centres unmarked), the “hERG current change (%, negative = inhibition) at 1uM” value was 0.0211%. Then `CCOC(=O)Nc1sc(C)nc1-c1ccccc1`, with 13.9%; and `O=C1CCCN1CC(O)CS(=O)(=O)Cc1ccc(Cl)cc1Cl` (centres unmarked), with 10.2%; and `CCC(C)/C(C)=N/NC(=O)CNS(=O)(=O)c1ccc([N+](=O)[O-])cc1` (centres unmarked), with 0.923%. Under `CC1CC(C)CN(C(=O)Cn2c(SCC(=O)N3CCc4ccccc4C3)nc3ccccc32)C1` (centres unmarked) stands 8.52%. Take `O=c1[nH]c(=S)[nH]c(O)c1N=Nc1ccc(S(=O)(=O)N2CCOCC2)cc1`: the “hERG current change (%, negative = inhibition) at 1uM” value is listed as 11.1%. Then `CS(=O)(=O)c1ccc(Sc2nc3ccccc3[nH]2)c([N+](=O)[O-])c1`, with -7.12%; and `CN(CC(=O)Nc1c(Cl)cccc1Cl)C(=O)CCC1CCCC1`, with 16.7%; and `CC(=O)C[C@H]1c2ccccc2S(=O)(=O)N1c1ccccc1`, with 15%. Then `O=C1CC(c2ccccc2)n2nc(N3C(=O)CCC3=O)nc2N1` (centres unmarked), with 9.75%.
